# Reference: the supplement of paper PMC9938546
# Where a name gives a salt, the structure may show the parent alone. The list shows a part of the results. Repeats are few or missing, and single values can be far off.
# Test system: HCT116-GFP
# Assay: HCT116-GFP viability (GFP intensity) relative to untreated control, monoculture; higher = less cancer cell killing
# Conditions: culture: HCT116-GFP monoculture; 10 µM; 72 h
# 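Note: viability estimated indirectly by image-based GFP quantification with live-cell imaging of the constitutively GFP-expressing human colorectal cancer line, no immune cells added.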
row,Structure (SMILES),HCT116-GFP viability [%]
1,O=C(O)/C=C/c1ccc(Cn2ccnc2)cc1 [Ozagrel hydrochloride],91.9
2,CCCc1nc(C)c2c(=O)nc(-c3cc(S(=O)(=O)N4CCN(CC)CC4)ccc3OCC)[nH]n12 [Vardenafil],92.4
3,CC(C)NC[C@@H](O)COc1cccc2ccccc12 [(R)-Propranolol hydrochloride],105
4,"CC(C)NCC(O)c1ccc(O)c(O)c1 (single isomer, unassigned; (+)) [(+)-Isoproterenol (+)-bitartrate salt]",82.2
5,CNCC(O)c1ccc(OC(=O)C(C)(C)C)c(OC(=O)C(C)(C)C)c1 (configuration not stated) [Dipivefrin hydrochloride],102
6,CCN(CC)CCc1nc(-c2ccccc2)no1 [Oxalamine citrate salt],94.9
7,Cc1c(N(C)CS(=O)(=O)O)c(=O)n(-c2ccccc2)n1C [Dipyrone],99.4
8,O=c1[nH]c(=O)n(C2CCCO2)cc1F (configuration not stated) [Tegafur],87
9,CC(NCCC(c1ccccc1)c1ccccc1)c1ccccc1 (configuration not stated) [Fendiline hydrochloride],38.5
10,COc1c2occc2c(OC)c2c(=O)cc(C)oc12 [Khellin],97.7
11,CC[C@H](C)C(=O)O[C@H]1CCC=C2C=C[C@H](C)[C@H](CC[C@@H]3C[C@@H](O)CC(=O)O3)[C@H]21 [Mevastatin],62.1
12,Nc1cc(C(Cl)=C(Cl)Cl)c(S(N)(=O)=O)cc1S(N)(=O)=O [Clorsulon],101
13,C[C@H](CCC(=O)O)[C@H]1CC[C@H]2[C@@H]3[C@H](O)C[C@@H]4C[C@H](O)CC[C@]4(C)[C@H]3CC[C@]12C [Chenodiol],102
14,CN1CCN(c2c(F)cc3c(=O)c(C(=O)O)cn(CCF)c3c2F)CC1 [Fleroxacin],80.3
15,CC(=O)OCC(CCn1cnc2cnc(N)nc21)COC(C)=O [Famciclovir],109
16,NNc1nncc2ccccc12 [Hydralazine hydrochloride],90.3

row,Structure (SMILES),HCT116-GFP viability [%]
1,Cc1nc(=O)c2cc(CN(C)c3ccc(C(=O)N[C@@H](CCC(=O)O)C(=O)O)s3)ccc2[nH]1 [Raltitrexed],50.5
2,CN1CCN(CCCN2c3ccccc3Sc3ccc(Cl)cc32)CC1 [Prochlorperazine dimaleate],45
3,O=c1oc2ccccc2c(O)c1Cc1c(O)c2ccccc2oc1=O [Dicumarol],99.2
4,COc1ccc(C2CNC(=O)C2)cc1OC1CCCC1 (configuration not stated) [Rolipram],93.5
5,O=S(=O)(O)c1cc(O)ccc1O [Ethamsylate],93.5
6,CCC(=O)O[C@]1(C(=O)CCl)[C@@H](C)C[C@H]2[C@@H]3CCC4=CC(=O)C=C[C@]4(C)[C@@]3(F)[C@@H](O)C[C@@]21C [Clobetasol propionate],99.1
7,c1ccc([C@H]2CN3CCSC3=N2)cc1 [Levamisole hydrochloride],91.2
8,O=C1OCCN1/N=C/c1ccc([N+](=O)[O-])o1 [Furazolidone],90.4
9,Nc1nc2n[nH]nc2c(=O)[nH]1 [Azaguanine-8],44.6
10,CN(C)c1nc(N(C)C)nc(N(C)C)n1 [Altretamine],106
11,CC(C)NCC(O)c1ccc2ccccc2c1 (configuration not stated) [Pronethalol hydrochloride],103
12,"C[C@H]1C[C@@H]2[C@H]([C@@H](O)C[C@@]3(C)[C@H]2CC[C@]3(O)C(=O)CO)[C@@]2(C)C=CC(=O)C=C12 [Methylprednisolone, 6-alpha]",103
13,NC(=O)C(c1ccccc1)(c1ccccc1)[C@@H]1CCN(CCc2ccc3c(c2)CCO3)C1 [Darifenacin hydrobromide],75
14,CCCNCC(O)COc1ccccc1C(=O)CCc1ccccc1 (configuration not stated) [Propafenone hydrochloride],90.1
15,COc1cc([C@@H]2c3cc4c(cc3[C@@H](O[C@@H]3O[C@@H]5CO[C@@H](C)O[C@H]5[C@H](O)[C@H]3O)[C@H]3COC(=O)[C@H]23)OCO4)cc(OC)c1O [Etoposide],31.3
16,COc1ccccc1OCC(O)CN1CCN(CC(=O)Nc2c(C)cccc2C)CC1 (configuration not stated) [Ranolazine],100
